The other results are listed elsewhere or left out. At the low end of the ranking, values are background and their order means little.

This test concerns the target T1, GST-Rok (full length) (UniProt O34857).
T1 sequence: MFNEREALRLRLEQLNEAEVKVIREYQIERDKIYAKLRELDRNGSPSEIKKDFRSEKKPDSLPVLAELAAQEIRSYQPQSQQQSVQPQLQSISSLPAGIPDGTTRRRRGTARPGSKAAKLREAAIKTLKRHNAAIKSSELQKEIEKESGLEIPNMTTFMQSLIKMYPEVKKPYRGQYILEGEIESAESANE
Kind of test: protein binding microarray.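 Also: rank score from −0.5 (least bound) to 0.5 (best bound).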 The settings on record: Rok is a gene silencer of Bacillus subtilis; high values mean tight binding; most listed sequences are background and not binding sites; double strand, one strand shown.
TGGCATAA showed a binding signal of -0.09 E-score. As for CTCGCTCC, the binding signal was -0.273 E-score.

ATCCCGAT registered a binding signal of 0.165 E-score.

As to ATGTATCA, the binding signal came to 0.324 E-score.

ATTAACGA returned a binding signal of 0.134 E-score.

In turn, CAGTAATG showed a binding signal of 0.0273 E-score. For the sequence TCCCCACA, the binding signal was -0.371 E-score. For the sequence GTCTCTAA, the binding signal is -0.0327 E-score. The same measure for CATTCTCG: -0.0568 E-score. As for CCAATCCG, the figure is -0.0703 E-score; as for AGGCATGC, -0.113 E-score. The same measure for CGCGGAGC: -0.204 E-score.

As for CATTATAG, the binding signal came out at 0.255 E-score.

As to AATGAAAG, the binding signal was found to be 0.0476 E-score. The same measure for CTCCGGCC: -0.246 E-score; for ATACGGCA: 0.117 E-score. Sequence GTTCAAGA showed a binding signal of -0.135 E-score. CCTAACTA returned a binding signal of 0.26 E-score.

For ATCTCATC, the binding signal worked out at 0.121 E-score. As for GTCCAGAC, the figure is -0.238 E-score; as for AAGGCTCT, -0.163 E-score. The sequence AGTGAATG yielded a binding signal of 0.0707 E-score. ATTACTTG showed a binding signal of 0.111 E-score. In turn, AGAGTCCC returned a binding signal of -0.313 E-score. As to CATAAGAG, the binding signal worked out at 0.0713 E-score. With GGGCCTAA, the binding signal was -0.307 E-score.

For CCAGAGTC, the binding signal is -0.189 E-score. As for GAATACAC, the figure is 0.0158 E-score.

The sequence TAATAACA showed a binding signal of 0.238 E-score.

CTTGCAAC registered a binding signal of 0.0294 E-score. CGGTAGGA had a binding signal of 0.281 E-score.

Regarding ATACTAAA, the binding signal was 0.391 E-score.

AGTTCCTG displayed a binding signal of 0.11 E-score. As for ATATATGC, the figure is 0.338 E-score; as for CTCTTACC, -0.0316 E-score. The same measure for ACGCAGAT: 0.0458 E-score; for GACCCGGA: -0.15 E-score; for ACTACGCT: 0.0979 E-score. The same measure for GTGGAAGA: -0.0706 E-score; for ACATTATC: 0.313 E-score; for GCGGCCCC: -0.464 E-score. For the sequence GCTGGGCA, the binding signal is -0.247 E-score. With ATTTTGGG, the binding signal was -0.0778 E-score.

As to GGCGCCCC, the binding signal was -0.347 E-score. On to AGGTTTAT, for which the binding signal worked out at 0.0678 E-score. The same measure for TAGGCACA: 0.0555 E-score; for AATTCCGC: 0.128 E-score. In the case of ATACTGAC, the binding signal is 0.102 E-score. As for GAGCAGGC, the binding signal is -0.25 E-score. Take ACCGCCTC: the binding signal was -0.305 E-score. As to GACTCACA, the binding signal was -0.0949 E-score. As for GCCTCCCC, the figure is -0.354 E-score. As for AACGTACA, the figure is 0.155 E-score. As for CAATGCTG, the figure is -0.141 E-score; as for CCCTTGTC, -0.297 E-score.

As for AATAAAGT, the binding signal is 0.0461 E-score. As for CAAAAGTG, the figure is -0.165 E-score; as for CATCCCAG, -0.0784 E-score; as for ACTCGCCC, -0.0753 E-score.

In turn, CGGTAGTA had a binding signal of 0.342 E-score. AGGCTTGG came in with a binding signal of -0.264 E-score. The same measure for TAGAAGAA: 0.109 E-score; for ACGACTGC: -0.0458 E-score. The sequence CTTCCGCC yielded a binding signal of -0.247 E-score. The sequence GCGATGTA registered a binding signal of 0.042 E-score.

As for AGGGGACA, the binding signal is -0.318 E-score. The same measure for AACTAATG: 0.339 E-score. ACCCACAC yielded a binding signal of 0.0119 E-score. On to CGGGACTA, for which the binding signal was -0.0393 E-score. Sequence GTGTTCTA had a binding signal of 0.289 E-score. Turning to GCTCCAGA, the binding signal was -0.29 E-score. Take CGGTGATC: the binding signal is -0.0519 E-score. With AGACGGAT, the binding signal is -0.164 E-score.

Sequence CTCTCACA returned a binding signal of -0.156 E-score.

GGGACAAA returned a binding signal of -0.151 E-score. ACTCTCCA came in with a binding signal of -0.0297 E-score. ATACACGG: the binding signal came to 0.0962 E-score. As for ATAGTGAG, the figure is 0.262 E-score; as for AGGGCGAC, -0.222 E-score; as for CGCGCTTC, 0.093 E-score. In turn, TAATTACA gave a binding signal of 0.335 E-score. As for GTACGGTA, the figure is 0.232 E-score; as for ACTTCTCG, 0.0799 E-score.

Take GAGTCCTA: the binding signal was -0.0464 E-score. For CTCAAGGC, the binding signal is -0.321 E-score. As for GGTTCTAC, the figure is 0.0507 E-score. The same measure for AACGACAG: 0.0268 E-score; for GATCAACC: -0.176 E-score.

In turn, ATTCTGAA came in with a binding signal of 0.137 E-score. GCCACAAA yielded a binding signal of -0.162 E-score. The same measure for GATTATAC: 0.217 E-score. For GGACCCCA, the binding signal is -0.382 E-score. The same measure for CATGGTCG: 0.000741 E-score. As for GCCCGGCC, the binding signal was -0.442 E-score. Take ACCACACA: the binding signal was 0.00655 E-score. As for ATCCTTAC, the figure is 0.0577 E-score; as for ACATATCC, 0.179 E-score. GATTGTAA came in with a binding signal of 0.0122 E-score. The same measure for ATGGCGCG: -0.0369 E-score. As for GGATGCAC, the figure is -0.16 E-score; as for ACTTGCCA, 0.142 E-score; as for ACGTCCAT, -0.216 E-score. The same measure for ACCTAGTC: 0.123 E-score; for AATTTAAA: 0.111 E-score. GGAGAGCA yielded a binding signal of -0.299 E-score.

In the case of CTCCTGAA, the binding signal is -0.152 E-score. The same measure for ACGCCCGA: 0.0062 E-score. The same measure for CACTGAGA: -0.00974 E-score; for CCAATAAA: 0.204 E-score; for AACGTCTA: -0.0148 E-score.

Consider GCTACATA, for which the binding signal is 0.31 E-score. As for GTGTTACA, the figure is 0.0743 E-score; as for GCATCCGA, -0.183 E-score; as for GATCCCCC, -0.395 E-score.

In turn, CATTTAAG showed a binding signal of 0.0548 E-score. CACATTAC: the binding signal is 0.139 E-score. With ACAGAAGA, the binding signal is 0.0217 E-score.

CTGAAGTC came in with a binding signal of 0.132 E-score. The sequence GCAACGCC displayed a binding signal of -0.0716 E-score. As for GGAAAGCA, the figure is -0.232 E-score; as for CAAATTCA, 0.131 E-score; as for AAATCAGT, 0.143 E-score. For the sequence CGGGTGGA, the binding signal was -0.162 E-score. As for ACAAAGAA, the figure is 0.00411 E-score. For CCCTCCAG, the binding signal was -0.295 E-score. The same measure for ACTATGAA: 0.214 E-score; for CGAGATTC: 0.0851 E-score; for CGAGTAAC: 0.156 E-score.

TCGGTCAA gave a binding signal of -0.0184 E-score. As for ATTCAGTA, the figure is 0.23 E-score; as for AACACGGG, 0.000601 E-score. On to CAAGGGGG, for which the binding signal was -0.305 E-score. The same measure for TCGAGCCA: -0.116 E-score; for CGCTGGTA: 0.0821 E-score; for CCCATTGC: -0.205 E-score. As for AATAAGGT, the figure is 0.133 E-score; as for AAACTTCC, -0.212 E-score; as for CCGGCGAA, -0.00971 E-score. In turn, CGAACCTA yielded a binding signal of 0.128 E-score.

On to CGAACTGC, for which the binding signal was -0.11 E-score. As for ATACGGAT, the figure is 0.223 E-score; as for GACGAAAC, 0.0677 E-score; as for AATGGCTA, -0.0683 E-score. The same measure for ACCGGGTC: -0.107 E-score. The same measure for GCAACATA: 0.167 E-score.

In turn, CCCCTAAA returned a binding signal of -0.272 E-score. The same measure for GGTGACGA: -0.186 E-score; for ACCCCGTC: -0.371 E-score. The sequence ACTGACCT gave a binding signal of 0.14 E-score. On to CAGCACTC, for which the binding signal was -0.226 E-score. In the case of AATAGGAC, the binding signal is -0.0353 E-score. As for GGCAGCGA, the figure is -0.0636 E-score. As for AGACTACC, the figure is 0.249 E-score. As for GACACCTA, the figure is -0.11 E-score; as for AGCACCCC, -0.287 E-score. In turn, AATGATGC returned a binding signal of 0.0194 E-score. As for ACAGTGAT, the figure is 0.0634 E-score.

Consider AAGGACGA, for which the binding signal is -0.157 E-score. The same measure for AGGTCCGA: -0.0739 E-score; for GAAACATC: 0.0397 E-score. GGTCTGAC gave a binding signal of -0.331 E-score.

On to ACAAGAAA, for which the binding signal was -0.0731 E-score. As for TGGAACCA, the figure is -0.177 E-score. The same measure for AGAAGATG: 0.193 E-score. As for AGCGGGGG, the figure is -0.353 E-score; as for ACTTGATG, -0.00809 E-score; as for CTAGCTAG, 0.327 E-score. Regarding AGAGAGTC, the binding signal is -0.223 E-score.

Regarding TAGATTAA, the binding signal was 0.226 E-score. AGAGGGGA had a binding signal of -0.324 E-score. The same measure for AGTACAGA: 0.0801 E-score; for ATAAAGTG: -0.05 E-score. The same measure for ACTTTGAT: 0.151 E-score.

Consider GACACCAC, for which the binding signal stood at 0.0479 E-score. The same measure for CGTAAATA: 0.343 E-score. As for CCTGCTCG, the figure is -0.399 E-score; as for CAAAGTCG, 0.0362 E-score.

On to ACATATCA, for which the binding signal is 0.22 E-score. As for GCAGCTCA, the figure is -0.239 E-score.

Sequence CACACACG came in with a binding signal of -0.145 E-score. In turn, CCTTCACC registered a binding signal of -0.226 E-score. The same measure for ACCGTTGC: 0.141 E-score; for ATCCGTCA: -0.022 E-score; for CTCCGGCA: -0.256 E-score. As for TAACTATA, the figure is 0.341 E-score; as for CTCTAATA, 0.047 E-score; as for CTCCGATC, -0.137 E-score. CCATCAAC yielded a binding signal of -0.0712 E-score. Turning to GGCAAGGA, the binding signal was -0.229 E-score. In the case of CTCGGGTC, the binding signal was -0.297 E-score. For the sequence AGCAACCG, the binding signal is -0.101 E-score. AGTAATGC registered a binding signal of 0.0808 E-score. TGTCCTAA returned a binding signal of -0.00549 E-score.

For the sequence TAGGTCCA, the binding signal is -0.0528 E-score.

In turn, CGAGTAGC had a binding signal of -0.0915 E-score. On to ACCGGCCA, for which the binding signal was -0.252 E-score.

In the case of AAAGCGCG, the binding signal is -0.0748 E-score.

For GAGATGAA, the binding signal was -0.185 E-score. As for ATCCCATA, the figure is 0.0754 E-score; as for CCCCTGGA, -0.338 E-score. With CACCATGA, the binding signal was -0.192 E-score. The same measure for AGATTCAC: 0.235 E-score; for CCCTTCGC: -0.278 E-score.

Regarding AAATCGCA, the binding signal turned out to be 0.115 E-score. As for GGGCTGAA, the figure is -0.297 E-score; as for AGTTAGAT, 0.162 E-score.

As for GTTTGAAA, the binding signal came out at 0.00281 E-score.

AACGTCAA: the binding signal worked out at 0.107 E-score. The same measure for ATCCCTAC: -0.0161 E-score; for GTGTTGCA: 0.0637 E-score. As for GCCGTTGA, the figure is -0.169 E-score. The same measure for ACGGGAAT: 0.0857 E-score. As to CGTGTGAA, the binding signal was 0.0388 E-score. AGGGCAGG came in with a binding signal of -0.304 E-score. Turning to GCAAAGTA, the binding signal is 0.173 E-score.

GGAGCTAC came in with a binding signal of 0.0887 E-score. The same measure for AAAAGAAA: -0.0875 E-score. The same measure for ACGCCGAA: -0.18 E-score; for CTGAACTC: 0.0655 E-score.

The values above are taken from paper PMC6212790.
